# Data: the supplement of paper PMC12645437, “Orthogonal IMiD-Degron Pairs Induce Selective Protein Degradation in Cells” (ACS Chemical Biology, 2025)
# Some of the results follow.
# Biological target: no compound (DMSO)
# Test: log2 fold change of degron read counts, EGFP-low vs EGFP+ sorted cells; higher = lower degron-EGFP level without compound (poor expression or instability)
# Settings: compound: DMSO control; 18 h
# 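Further: jurkat cells carrying a lentiviral library of mutant zinc finger degrons fused to EGFP plus mCherry, mCherry+ cells FACS sorted, degron abundance counted by next-generation sequencing.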
row,Sequence,log2 fold change of degron read counts
1,FSCPICGATFTQKGNLLRHIKL,-0.242
2,LMCNQCGFECTQKGNLLRHIKL,0.284
3,FHCPVCGANFTQKGNLLRHIKL,-0.321
4,FHCPVCGAGFTQKGNLLRHIKL,-0.165
5,FRCNICGAEFTQKGNLLRHIKL,-2.64
6,LWCNQCGFRCTQKGNLLRHIKL,2.28
7,FICNQCGAYFTQKGNLLRHIKL,-0.234
8,FTCDVCGAYFTQKGNLLRHIKL,-1.36
9,FHCPICGATFTQKGNLLRHIKL,-0.839
10,FKCDQCGADFTQKGNLLRHIKL,-3.43
11,FYCNICGAPFTQKGNLLRHIKL,0.341
12,FDCNQCGAEFTQKGNLLRHIKL,-1.18
13,FFCEICGAGFTQKGNLLRHIKL,-0.723
14,FFCEICGHMFTQKGNLLRHIKL,0.177
15,FFCDVCGAKFTQKGNLLRHIKL,-1.42
16,FKCEICGRMFTQKGNLLRHIKL,-1.73

row,Sequence,log2 fold change of degron read counts
1,FACDVCGAYFTQKGNLLRHIKL,-1
2,FNCPICGHRFTQKGNLLRHIKL,-0.537
3,FRCEVCGAIFTQKGNLLRHIKL,-0.202
4,FHCPICGADFTQKGNLLRHIKL,-0.403
5,LFCNQCGFRCTQKGNLLRHIKL,1.87
6,FTCPICGAFFTQKGNLLRHIKL,1.24
7,FMCNQCGHVFTQKGNLLRHIKL,-0.5
8,FKCNQCGRSFTQKGNLLRHIKL,-1.11
9,FRCNQCGRLFTQKGNLLRHIKL,0.767
10,LLCNQCGFPCTQKGNLLRHIKL,0.714
11,FVCEICGAYFTQKGNLLRHIKL,-1.07
12,FCCPICGRVFTQKGNLLRHIKL,0.392
13,FSCNQCGRYFTQKGNLLRHIKL,0.904
14,FSCEICGHCFTQKGNLLRHIKL,-2.46
15,FHCNQCGHWFTQKGNLLRHIKL,1.14
16,FVCNVCGAWFTQKGNLLRHIKL,-0.015
